Measurements reported in article PMC9911399, “Two distinct binding modes provide the RNA-binding protein RbFox with extraordinary sequence specificity”.
Numbering of substitutions follows the chain as printed; changes in the protein carry UniProt numbers. The list shows a part of the results.

T1: RBFOX1 RRM RbFoxmut (Fox-RRM*) (Homo sapiens, UniProt Q9NWB1 109-208, R118D;E147R;N151S;E152T)
T1 sequence: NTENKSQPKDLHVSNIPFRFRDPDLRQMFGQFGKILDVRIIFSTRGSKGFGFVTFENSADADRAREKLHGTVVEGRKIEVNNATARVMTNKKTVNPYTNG

B1: AGCGUUU (DNA:RNA)
RNA: GGGAGACCGGAAUUCAGAUUGUCCAGCGUUUUUAAAUCCCGUCGUAGCCACCA
DNA 1: CAATCTGAATTCCGGTCTCCC
DNA 2: TGGTGGCTACGACGGGATT
B2: UAAGACG (DNA:RNA)
RNA: B1 RNA with A25U, G26A, C27A, U29A, U30C, U31G
DNA 1: CAATCTGAATTCCGGTCTCCC
DNA 2: TGGTGGCTACGACGGGATT
B3: CAGCUAU (DNA:RNA)
RNA: B1 RNA with A25C, G26A, C27G, G28C, U30A
DNA 1: CAATCTGAATTCCGGTCTCCC
DNA 2: TGGTGGCTACGACGGGATT
B4: AUCACAG (DNA:RNA)
RNA: B1 RNA with G26U, G28A, U29C, U30A, U31G
DNA 1: CAATCTGAATTCCGGTCTCCC
DNA 2: TGGTGGCTACGACGGGATT
B5: UUAAGAU (DNA:RNA)
RNA: B1 RNA with A25U, G26U, C27A, G28A, U29G, U30A
DNA 1: CAATCTGAATTCCGGTCTCCC
DNA 2: TGGTGGCTACGACGGGATT
B6: CACCCUA (DNA:RNA)
RNA: B1 RNA with A25C, G26A, G28C, U29C, U31A
DNA 1: CAATCTGAATTCCGGTCTCCC
DNA 2: TGGTGGCTACGACGGGATT
B7: AAAACAU (DNA:RNA)
RNA: B1 RNA with G26A, C27A, G28A, U29C, U30A
DNA 1: CAATCTGAATTCCGGTCTCCC
DNA 2: TGGTGGCTACGACGGGATT
B8: UAUUCCU (DNA:RNA)
RNA: B1 RNA with A25U, G26A, C27U, G28U, U29C, U30C
DNA 1: CAATCTGAATTCCGGTCTCCC
DNA 2: TGGTGGCTACGACGGGATT
B9: AACCAGG (DNA:RNA)
RNA: B1 RNA with G26A, G28C, U29A, U30G, U31G
DNA 1: CAATCTGAATTCCGGTCTCCC
DNA 2: TGGTGGCTACGACGGGATT
B10: UAUAUCA (DNA:RNA)
RNA: B1 RNA with A25U, G26A, C27U, G28A, U30C, U31A
DNA 1: CAATCTGAATTCCGGTCTCCC
DNA 2: TGGTGGCTACGACGGGATT
B11: CACUGGA (DNA:RNA)
RNA: B1 RNA with A25C, G26A, G28U, U29G, U30G, U31A
DNA 1: CAATCTGAATTCCGGTCTCCC
DNA 2: TGGTGGCTACGACGGGATT
B12: AAACAGC (DNA:RNA)
RNA: B1 RNA with G26A, C27A, G28C, U29A, U30G, U31C
DNA 1: CAATCTGAATTCCGGTCTCCC
DNA 2: TGGTGGCTACGACGGGATT
B13: GAGAGAG (DNA:RNA)
RNA: GGGAGACCGGAAUUCAGAUUGUCCGAGAGAGUUAAAUCCCGUCGUAGCCACCA
DNA 1: CAATCTGAATTCCGGTCTCCC
DNA 2: TGGTGGCTACGACGGGATT
B14: AUACCUC (DNA:RNA)
RNA: B1 RNA with G26U, C27A, G28C, U29C, U31C
DNA 1: CAATCTGAATTCCGGTCTCCC
DNA 2: TGGTGGCTACGACGGGATT
B15: CGGUGGA (DNA:RNA)
RNA: B13 RNA with G25C, A26G, A28U, A30G, G31A
DNA 1: CAATCTGAATTCCGGTCTCCC
DNA 2: TGGTGGCTACGACGGGATT
B16: CUACUAC (DNA:RNA)
RNA: B1 RNA with A25C, G26U, C27A, G28C, U30A, U31C
DNA 1: CAATCTGAATTCCGGTCTCCC
DNA 2: TGGTGGCTACGACGGGATT
B17: GGCGCUG (DNA:RNA)
RNA: B1 RNA with A25G, U29C, U31G
DNA 1: CAATCTGAATTCCGGTCTCCC
DNA 2: TGGTGGCTACGACGGGATT
B18: CGACAGC (DNA:RNA)
RNA: B1 RNA with A25C, C27A, G28C, U29A, U30G, U31C
DNA 1: CAATCTGAATTCCGGTCTCCC
DNA 2: TGGTGGCTACGACGGGATT
B19: UGGUUCA (DNA:RNA)
RNA: B1 RNA with A25U, C27G, G28U, U30C, U31A
DNA 1: CAATCTGAATTCCGGTCTCCC
DNA 2: TGGTGGCTACGACGGGATT
B20: AGAUCCU (DNA:RNA)
RNA: B1 RNA with C27A, G28U, U29C, U30C
DNA 1: CAATCTGAATTCCGGTCTCCC
DNA 2: TGGTGGCTACGACGGGATT
B21: AGGCUCA (DNA:RNA)
RNA: B1 RNA with C27G, G28C, U30C, U31A
DNA 1: CAATCTGAATTCCGGTCTCCC
DNA 2: TGGTGGCTACGACGGGATT
B22: UCUUUCU (DNA:RNA)
RNA: B1 RNA with A25U, G26C, C27U, G28U, U30C
DNA 1: CAATCTGAATTCCGGTCTCCC
DNA 2: TGGTGGCTACGACGGGATT
B23: CCUCUAC (DNA:RNA)
RNA: B1 RNA with A25C, G26C, C27U, G28C, U30A, U31C
DNA 1: CAATCTGAATTCCGGTCTCCC
DNA 2: TGGTGGCTACGACGGGATT
B24: CGAUGAG (DNA:RNA)
RNA: B13 RNA with G25C, A26G, G27A, A28U
DNA 1: CAATCTGAATTCCGGTCTCCC
DNA 2: TGGTGGCTACGACGGGATT
B25: CAGAUAA (DNA:RNA)
RNA: B13 RNA with G25C, G29U, G31A
DNA 1: CAATCTGAATTCCGGTCTCCC
DNA 2: TGGTGGCTACGACGGGATT
B26: CUGAAGU (DNA:RNA)
RNA: B13 RNA with G25C, A26U, G29A, A30G, G31U
DNA 1: CAATCTGAATTCCGGTCTCCC
DNA 2: TGGTGGCTACGACGGGATT
B27: CGAAAUC (DNA:RNA)
RNA: B1 RNA with A25C, C27A, G28A, U29A, U31C
DNA 1: CAATCTGAATTCCGGTCTCCC
DNA 2: TGGTGGCTACGACGGGATT
B28: CUAGGGU (DNA:RNA)
RNA: B1 RNA with A25C, G26U, C27A, U29G, U30G
DNA 1: CAATCTGAATTCCGGTCTCCC
DNA 2: TGGTGGCTACGACGGGATT
B29: CUCGGUC (DNA:RNA)
RNA: B1 RNA with A25C, G26U, U29G, U31C
DNA 1: CAATCTGAATTCCGGTCTCCC
DNA 2: TGGTGGCTACGACGGGATT
B30: CUGAUGU (DNA:RNA)
RNA: B1 RNA with A25C, G26U, C27G, G28A, U30G
DNA 1: CAATCTGAATTCCGGTCTCCC
DNA 2: TGGTGGCTACGACGGGATT
B31: AGGGCAA (DNA:RNA)
RNA: B1 RNA with C27G, U29C, U30A, U31A
DNA 1: CAATCTGAATTCCGGTCTCCC
DNA 2: TGGTGGCTACGACGGGATT

molecular target: T1, RBFOX1 RRM RbFoxmut (Fox-RRM*); assay: EMSA; HiTS-Eq, 1 nM pool, 10 min; buffer printed only for the single-RNA assays: 10 mM Tris pH 7.5, 150 mM NaCl, 3.4 mM EDTA, 0.001% NP-40, 30 C; details: tags: His6 N-terminal (pET28a); label: 5' 32P
Method in brief: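 Purified RbFox RRM, wild type or mutant, was incubated for 10 min in 50 µL with 1 nM of a 5′-radiolabelled RNA pool carrying 7 randomized nucleotides, whose flanks were annealed to DNA oligonucleotides, over a series of increasing protein concentrations. Unbound RNA was resolved on 8% native PAGE, cut out, reverse-transcribed, barcoded by PCR and sequenced on an Illumina HiSeq 2500. Relative association constants were derived from changes in read counts for each RNA species versus the control reaction and normalised to the cognate motif.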

Binder	binding signal
B1	0.108 KA relative to UGCAUGU
B2	0.0728 KA relative to UGCAUGU
B3	0.114 KA relative to UGCAUGU
B4	0.0938 KA relative to UGCAUGU
B5	0.0924 KA relative to UGCAUGU
B6	0.0853 KA relative to UGCAUGU
B7	0.0651 KA relative to UGCAUGU
B8	0.063 KA relative to UGCAUGU
B9	0.0758 KA relative to UGCAUGU
B10	0.0818 KA relative to UGCAUGU
B11	0.08 KA relative to UGCAUGU
B12	0.084 KA relative to UGCAUGU
B13	0.0964 KA relative to UGCAUGU
B14	0.0532 KA relative to UGCAUGU
B15	0.0945 KA relative to UGCAUGU
B16	0.105 KA relative to UGCAUGU

Binder	binding signal
B17	0.135 KA relative to UGCAUGU
B18	0.0526 KA relative to UGCAUGU
B19	0.19 KA relative to UGCAUGU
B20	0.0668 KA relative to UGCAUGU
B21	0.0858 KA relative to UGCAUGU
B22	0.0669 KA relative to UGCAUGU
B23	0.0802 KA relative to UGCAUGU
B24	0.133 KA relative to UGCAUGU
B25	0.0712 KA relative to UGCAUGU
B26	0.0845 KA relative to UGCAUGU
B27	0.0333 KA relative to UGCAUGU
B28	0.086 KA relative to UGCAUGU
B29	0.169 KA relative to UGCAUGU
B30	0.134 KA relative to UGCAUGU
B31	0.0595 KA relative to UGCAUGU
